The source gives no read counts; variants with many changes may rest on few reads.
B1: OR4K15 (parent)
chain: GUUAACGGUCAUAGGCCAUGGAAACUAGGAGCACCAUUUCGCUGCCAGUGAAGAAAUGAACAAAGAAAAUCUGGGCCAGGCAGGCAUCAAAAGAAAUAGUCUUGCGCUCAACCAGAAAGUCUGUAAUCAUUUUAAGGGUA

Variants of: B1
Test: self-cleavage, relative activity (ratio to wild type); higher = more cleavage; in vitro, sequencing; the parent is a self-cleaving ribozyme

Row | Variant | self-cleavage
1 | GUUAACGGUCAUAGGCCAUGGAAACUAGGAGCACCAUUUCGCUGCCAGUGAAGAAAUGAACAAAGAAAGUCUGGGCCAGGCAGGCGUCAAAAGAAAUAGUCUUGCGCCCAACCAGAAAGUCUGUAAUCAUUUUAAGGGUA [A69G A86G U108C] | 0.01
2 | GUUAACGGUCAUAGGCCAUGGAAACUAGGAGCACCAUUUCGCUGCCAGUGAAGAAAUGAACAAAGAGAAUCUGGGCCAGGCAGGCAUCAAAAGAAAUAGUCUAGCGCCCGACCAGAAAGUCUGUAAUCAUUUUAAGGGUA [A67G U103A U108C A110G] | 0
3 | GUUAACGGUCAUAGGCCAUGGAAACUAGGAGCACCAUUUCGCUACCAGCGAAGAAAAGAACAAAGAAAAUCUGGGCCAGGCAGGCAUCAAAAGAAAUAGUCUUGCGCUCACCCAGAAAGUCUGUAAUCAUUUUAAGGGUA [G44A U49C U57A A111C] | 0.05
4 | GUUAACGGUCAUAGGCCAUGGAAACUAGGAGCACCGUUUCGCUGCCAGUGAAGAAAUGAACAAAGAAGAUCUGGGCCAGGCAGGCAUCAAAAGAAAUAGUCUUGCGCUCAACCAGAAAGUCUGUAAUCAUCUUAAGGGUA [A36G A68G U131C] | 1
5 | GUUAACGGUCAUAGGCCAUGGAAACUAGGAGCACCAUUUCGCUGCCAGUGGAGAAGUGAACAAAGAAAAUCUGGGCCAGGCAGGCAUCAAAAGAAGUAGUCUUGCGCUCAACCAGAAAGUCUGUAAUCAUUUUAAGGGUA [A51G A56G A96G] | 0.81
6 | GUUAACGGUCAUAGGCCAUGGAAUCUAGGAGCGCCAUCUCGCUGCCAGUGAAGAAAUGAACAAAGAAAAUCUGGGCCAGGCAGGCAUCAAAAGAAAUAGUCUUGCGCUCAACCAGAAAGUCUGUAAUCAUUUUAAGGGUA [A24U A33G U38C] | 0.24
7 | GUUAGCGGUCAUAGGCCAUGGAAACUAGGAGCACCAUUUCGCUGCCAGUGAAGAAAUGAACAAAGAAAAUCUGGGCCAGGCAGGCAUCAAAGGAAAUCGUCUUGCGCUCAACCAGAAAGUCUGUAAUCAUUUUAAGGGUA [A5G A92G A98C] | 1.37
8 | GUUAACGGUCAUAGGCCAUGGAAGCUAGGAGCGCCACUUCGCUGCCAGUGAAGAAACGAACAGAGAAAAUCUGGGCCAGGCAGGCAUCAAAAGAAAUAGUCUUGCGCUCAACCAGAAAGUCUGUAAUCAUUUUAAGGGUA [A24G A33G U37C U57C A63G] | 0.56
9 | GUUAACGGUCAUAGGCCAUGGAAACUAGGAGCACCAUUUCGCUGCCAGUGAAUAAGUGAACAAAGAAAAUCUGGGCCAGGCAGGCAUCAAAAGAAAUAGUCUCGCGCUCAACCAGAAAGUCUAUAAUCAUUUUAAGGGUA [G53U A56G U103C G123A] | 0.92
10 | GUUAACGGUCAUAGGCCACGGAAACUAGGAGCACCACUUCGCUGCCAGUGAAGAAAUGAACAAAGAAAAUCUGGGCCAGGCAGGCAUCAAAAGAAAUGGUCUUGCGCUCAGCCAGAAAGUCUGUAAUCAUUUUAAGGGUA [U19C U37C A98G A111G] | 0
11 | GUUAACGGUCAUAGGCCAUGGAAACUAGGAGCACCAUUUCGCUGCCAGUGAAGGAAUGGACAAAGAAAAUCUGGGCCAGGCAGGCAUCAAAAGAAAUAGUCUUGCGCUCAACCAGAAAGUUUGUAAUCAUUUUAAGGGUA [A54G A59G C121U] | 1.72
12 | GUUAACGGUCAUAGGCCAUGGAAACUAGGAGCACCAUCUCGCUGCCAGUGAAGAAAUGAACAAAGAAAAUCUGGGCCAGGCAGGCAUCAAAGGAAAUAGUCUUGCGCUCAACCGGAAAGUCUGUAAUCAUUUUAAGGGUA [U38C A92G A114G] | 0.62
13 | GUUAACGGUCACGGGCCAUGGAAACUAGGAGCACCAUUUCGCUGCCAGUGAAGAAAUGAACAAAGAAAAUCUGGGCCAGGCAGGCAUCAAAAGAAAUAGUCAUGCGCUCAACCAGAGAGUCUGUAAUCAUUUUAAGGGUA [U12C A13G U102A A117G] | 1.06
14 | GUUAACGGUCAUAGGCCAUGGAAACUAGGAGCACCAUUUCGCUGCCAGUGAAGAAAUGAGCAAAGAAAAUCUGGGCCAGGCAGGCAUCAAAGGAAAUAGUCUUGCGCUCAGCCAGAAAGUCUGUAAUCAUUUUAAGGGUA [A60G A92G A111G] | 0.03
15 | GUUAACGGUCAUAGGCCAUGGAAACUAGGAGCACCAUUUCGCUGCCAGUGAAGAAAUGAACAAAGAAAAUCUGGGCCAGGCAGGCAUCAAAAGAAGUAGUCUUGCGCUCAACCGGAAAGUCUGUAAUCACUUUAAGGGUA [A96G A114G U130C] | 0.27
16 | GUUAACGGUCAUAGGCCAUGGAAACUAGGAGCACCAUUUCGCUGCCAGUGAAGAAAUGGACAAAGAAAAUCUGGGCCAGGCAGGCAUCAAAAGAAAUAGUCUUGCGCUCAACCAGAAAGUCUGUAAUCAUUCAAAGGGUA [A59G U132C U133A] | 1.42
17 | GUUAACGGUCAUAGGCCAUGGAAUCUAGGAGCACCACUUCGCUGCCAGUGAAGGAAUGAACAAAGAAGAUCUGGGCCAGGCAGGCAUCAGAAGAAAUAGUCUUGCGCUCGACCAGAAAGUCUGUAACCAUUUUAAGGGUA [A24U U37C A54G A68G A90G A110G U127C] | 0.02
18 | GUCAACGGUCAUAGGCCAUGGAAACUAGGAGCACCAUUUCGCUGCCAGUGAAGAAAUGAACAAAGAAAAUCUGGGCCAGGCAGGCAUCAAAAGAAAUAGUCUUGCGCUCAGCCAGAGAGUCUGUAAUCAUUUUAAGGGUA [U3C A111G A117G] | 0.02
19 | GUUAACGGUCACAGGCCAUGGAAACUAGGAGCACCAUUUCGCUGCCAGUGAAGAAAUGAACACAGAAAUUCUGGGCCAGGCAGGCAUCAAAAGAAAUAGUCUCGCGCUCAGCCAGAAAGUCUGUAAUCAUUUUAAGGGUA [U12C A63C A69U U103C A111G] | 0.03
20 | GUUAACGGUCAUAGGCCGUGGAAACUAGGAGCACCAUUUCGCUGCCAGUGAAGAAAUGAACUAAGAAGAUCUGGGCCAGGCAGGCAUCAAAAGAAAUAGUCUUGCGCCCAACCAGAGAGUCUGUAAUCAUUUUAAGGGUA [A18G A62U A68G U108C A117G] | 0.03
21 | GUUAACGGUCAUAGGCCAUGGAAACUAGGGGCACCAUUUCGCUGCCAGUGAAGAAAUGAACAAAGAAAAUCUGGGCCAGGCAGGCAUCGAAAGAAAUAGUCUUGCGCUCAACCUGAAAGUCUGUAAUCAUUCUAAGGGUA [A30G A89G A114U U132C] | 0.03
